Source: the supplement of paper PMC11417369
The list shows a part of the results.

Tested on: PF3D7_0420300 AP2 domain 1 (GST-tagged)
Experiment: gcPBM binding intensity (ln(normalized median fluorescence intensity)); higher = stronger DNA binding
Outline: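 Binding intensity values are the highest Masliner-normalised natural-log median intensity among replicate spots of either probe orientation. The binding step lasted 1 h in 1× PBS with 1% milk, 0.2 mg/ml BSA, 0.5% salmon testes DNA and 0.03% Triton X-100, using GST-tagged P. falciparum DNA-binding domains expressed in E. coli on an Agilent 4 × 180k array of primer-extended double-stranded 36-bp intergenic genomic probes plus negative controls. Alexa488 anti-GST antibody and a 488 nm scan detected bound protein.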

| Sequence | gcPBM binding intensity (ln) |
| --- | --- |
| AAGAAAATAAAATAAAAAAAAAAATAAAAAAAATAA [TGCATGCA_negctrl_site516] | 9.26 |
| AACATTTTTAAATATATAAAAATATATATATATATA [XGTACX_negctrl_site551] | 8.97 |
| TTATATTTATGATACACACACGTATATTCACATACA [CACACA_site6354] | 9.7 |
| TTTTAAAGCATATCATATAAAGAACATGACATAGGA [CACACA_negctrl_site630] | 9.22 |
| GTATGTTTAATTTTAGTGCAATTATAAATATTTTAA [GTGCAC_site9531] | 9.18 |
| TTGCCATTAATTTATACACACACATTTTAATTTTTT [CACACA_site8150] | 9.89 |
| TTGTCATTTATAAAATGTACGTGTGTATATATTTAA [XGTACX_site5000] | 9.27 |
| TCAATAGTTACTAGTACATGCAAAAATAAACCTATA [TGCATGCA_site85] | 9.34 |
| CAAATATATATGTTCACACATATAATTATTGTGAAA [CACACA_site4190] | 9.13 |
| AGTGTGTGTGCGTATAGTACATATACATATATACAC [XGTACX_site6882] | 9.78 |
| AAATGAATAAAATTTATTTATAAAAGAAAAATCACA [GTGCAC_negctrl_site225] | 9.03 |
| ATAATACAAAATACATGTACAAATATTTTTCATATT [XGTACX_site1721] | 9.32 |
| TAGTACACACAAAATACATGCGGGGTTTAATATTTA [TGCATGCA_site576] | 9.6 |
| AATTCTTTCATATATTGTACGTATTCCCATAAAATA [XGTACX_site5923] | 9.36 |
| AATATCATCAAACGCACACATACATAAATATATTAT [CACACA_site2174] | 9.63 |
| GTTCTTTCAAGTTATACACACCAAAAAAAAAAAAAA [CACACA_site7435] | 9.12 |
| TGTTATATTTGTGCGTGTACACATTTGAAAAAATAT [XGTACX_site3796] | 9.25 |
| TTTCTTTATTTTTTTTTTTTTTTTTTTCCTTTTTTT [TGCATGCA_negctrl_site231] | 9.21 |
| AACGGGGCCAAGAAATATAAATAATCAAAACAAAAA [XGTACX_negctrl_site320] | 9.17 |
| TGTGCACGCATATACACACACAAATACAATGATAAA [CACACA_site6656] | 9.72 |
| ATATATAAAATATATTGTACATTAACATATATATTT [XGTACX_site2055] | 9.21 |
| GTAATATTATATAGTTGTACTTTTTTTTTATTATAT [XGTACX_site483] | 9.35 |

| Sequence | gcPBM binding intensity (ln) |
| --- | --- |
| AAACTTGACGGACACACACACACATATATAAAAAAA [CACACA_site4577] | 10 |
| ATATATAAATAAATAGTGCATTTTAATATTTAACGT | 9.33 |
| AGTAAAAGAAAGCACACACACATGTATATATGTATG [CACACA_site3858] | 9.92 |
| CAATATAAAAAACACACGCACACAAAAAAAAAAAAA [CACACA_site3521] | 9.79 |
| TTTAAATATTTTAACACACTCATATTTAGGTTACAA [CACACA_site5685] | 9.21 |
| TTTACATATTTATATACACACTTTTGCGTGTCTGGT [CACACA_site4750] | 9.42 |
| TCCATATATATTATGTGTACATATTATATATATAAA [XGTACX_site7525] | 9.02 |
| TAATCCATAAGAAGCACACACATATAAATATATTTT [CACACA_site6774] | 9.79 |
| TATTTAAAGATATATACACACATTTGATATTATTAT [CACACA_site6509] | 9.46 |
| CACACGTAAAAGTATAATATAAAAAAGGTATACACT [CACACA_negctrl_site127] | 9.42 |
| ACCTACATACATATGTGTACTTATTTGTATTCACTG [XGTACX_site7124] | 9.64 |
| ATAATATATGAAAAAACGATTTTTTCATTTTAAATA [XGTACX_negctrl_site146] | 9.01 |
| TTTATAAACAAATGAACACACAAACATATTTATATA [CACACA_site7478] | 9.69 |
| AAAAAAAAAATTTTCGTGCACATAAGAAAATTTAAA [GTGCAC_site9788] | 8.98 |
| ATAGTATATCAAAATTTGTAAATCATTCTCAATAAA [CACACA_negctrl_site430] | 8.87 |
| CATACATACAAACACACACACATATAAATACATACA [CACACA_site4625] | 10.2 |
| ACATTGTTGGTGTTAGTGCATTGGTAAATATTATAT | 9.58 |
| AAAAAAAAAAAAAAAACACACATATCTGTATTTATA [CACACA_site5760] | 9.3 |
| AATTATATATAAAAAGTGCAAAACGATAATTCATCA | 9.47 |
| AATATATATATATTATGTACACATAGAAATATATTA [XGTACX_site3874] | 9.19 |
| TCATATTCCAAAAAAAAAAAAAAAAAAAAAAAAATA [CACACA_negctrl_site1293] | 8.99 |
| ATGTATTACTTAAATATATGAAACATATTACTTTTA [CACACA_negctrl_site496] | 9.11 |

| Sequence | gcPBM binding intensity (ln) |
| --- | --- |
| TTTTAGCTATTTTAATATAATGAAGCAAAAAATAAA [TGCATGCA_negctrl_site576] | 8.88 |
| ATAATAAATTCTACGCGTACAAAACCATGAACATTA [XGTACX_site7505] | 9.32 |
| CTTTCAAAATTATTTATAGTATCTCATATTTTAGTA [XGTACX_negctrl_site72] | 9.07 |
| TTTATTAATAAAAAGGTGCAATCAGGAAAAATTATC [GTGCAC_site9626] | 9.35 |
| ACACATATGTATATATGTACTTATATATATATATAT [XGTACX_site8632] | 9.31 |
| ATCCTTTATAAATAAGTGCATATAAAAAATAATATT [GTGCAC_site9759] | 9.09 |
| AGTCCTTACACATATATTAAATATGTGTATATATAT [XGTACX_negctrl_site336] | 9.53 |
| TTTTGTTTAGTGTATTGTACAATATATCTTTATTTT [XGTACX_site5163] | 9.56 |
| AAAAAAAAAAAAAAAAGTACATATATATATATAATT [XGTACX_site4437] | 9.22 |
| TATTAATACGGACACACACACACACTAGATAAAATA [CACACA_site4295] | 10.2 |
| AAACATTTATGAAGGTGTACAAAAATGAATTAAAAA [XGTACX_site7035] | 9.32 |
| TATTTAAATACTGACGCATGCATAAGGAGTAATAGT [TGCATGCA_site465] | 9.54 |
| TTTTTTTTTTTTTTTTGTACTTATAAAATAACATGT [XGTACX_site134] | 8.57 |
| TAATACTTAGAGAAAAGTACGTATGAACTTATGTAA [XGTACX_site5504] | 9.12 |
| TATAAAAAAATAATAAAATAATAAAATATATAAATA [TGCATGCA_negctrl_site394] | 9.25 |
| TTTTAAAAGGTAAAATGTACATATATAATATATACA [XGTACX_site1222] | 9.11 |
| ATTCTATTATCCTTTGCACACAAAATAAATGAAAAA [CACACA_site3030] | 9.31 |
| CCTTCCTTGAATTTTACATGCAAAAAATTATAAAAC [TGCATGCA_site663] | 8.92 |
| TATATATTATATATTTGTACATATATATAAAAACTT [XGTACX_site449] | 9.12 |
| TTATTAAAATATACATTTGAAAGTAATCTTATTTAA [XGTACX_negctrl_site431] | 8.77 |
| TTTTTTCAATATTATATCCAAAAATATTTGTAAATA [TGCATGCA_negctrl_site596] | 8.87 |
| ATTTTTATTTTTTTTGTGCACATTTTCATTTTCTAT [GTGCAC_site9580] | 9.65 |

| Sequence | gcPBM binding intensity (ln) |
| --- | --- |
| TTTATAATAAAAAATACATGCAGTTATATATAATAA [TGCATGCA_site654] | 9.16 |
| ATATTGAAAATTTGAAGTACATCTAAATATATTATT [XGTACX_site7817] | 9.16 |
| ATCCGTGTCTGAAATACACACATGACAATGTGAATG [CACACA_site6556] | 9.37 |
| TATATATAAATAAACACACACAAATATAATAAAAAA [CACACA_site3526] | 10.1 |
| ATAATGTGTTTGGTATTCTTGATAGATAGTTTTGTG [CACACA_negctrl_site68] | 9.52 |
| TAAAAGGATACATATACACACATATATATATATATA [CACACA_site2791] | 9.32 |
| ATATTTTTATATAATGAACACACATATTATATCATT [CACACA_site8446] | 9.4 |
| TTCTTCAACAAAAAAATAAAAATAAAATAATAAAAA [GTGCAC_negctrl_site619] | 9.08 |
| ATAAATCGATAAAATATATGCTACATGAATAAATAA [XGTACX_negctrl_site604] | 9.35 |
| TTTAAAAAATTATATTCACACACATACACATATATA [CACACA_site8076] | 9.71 |
| AAAATATGTTAATATTGTACTTAAATAAAAAAAATA [XGTACX_site7152] | 8.99 |
| ATTCTTAAAATAAAATGTACGAAAAAAAAAAAAAAA [XGTACX_site1657] | 8.92 |
| TATATATATATAAACGCATGTAATTTATACACACAT [TGCATGCA_site946] | 9.41 |
| ATCTTTCCTTTTGCATGTACATATGGAAATACTTTT [XGTACX_site6995] | 9.41 |
| ATAATTAAGTTATGTGTGCACTGTTAAAAATAAATG | 9.49 |
| ATACACATAACATATATATATATATATATATATATC [CACACA_negctrl_site278] | 9.36 |
| TTTTATGATATTTACACACAAACGTGAGATAGCTCA [CACACA_site2311] | 9.28 |
| AATATAATATCTATAATATAAAAAAAACAAAAAAAA [CACACA_negctrl_site875] | 9.4 |
| TTTTTTATTTTTTACATATTTAGCTCATATTTATAT [GTGCAC_negctrl_site491] | 9.44 |
| AAGGCATGACTATCTGCACACATAAAAATAAGAAAT [CACACA_site8180] | 9.52 |
| TAAAAAAAAATATAATGTACGTATAAATATATATTA [XGTACX_site5085] | 9.24 |
| TAAACATAATAATATACACACATATATTGATATATA [CACACA_site2144] | 9.57 |
